Measured values from the supplement of paper PMC10126150.
Values marked as one replicate rest on one cluster of the flow cell; about a third of the high ones do not repeat.

Test system: ATP
Assay: switch fluorescence ratio, 500 uM ATP over buffer (Cy3 cluster intensity, sum of 5 cycles each) (fold (ratio)); higher = stronger signal-on switching upon ATP binding; sequences stand for … in TCGTCGGCAGCGTCAGATGTGTATAAGAGACAGTTTTTTTTTTTTTTTTTTTTTTTTT…TC
Conditions: aptamer strand: ATP DNA aptamer (quencher-CACCTGGGGGAGTATTGCGGAGGAAGG + anchor), 100 nM annealed; ATP concentration: 500 uM; one replicate
Procedure, shortened: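 Between each of five buffer/ATP cycles, the flow-cell was stripped with NaOH and re-annealed. Each cycle imaged Cy3-labelled switching-strand clusters, annealed to 100 nM quencher-labelled ATP aptamer on a modified Illumina MiSeq flow-cell, first in selection buffer and then after 15 min with 500 uM ATP at 22 °C. The fluorescence ratio is summed target-cycle over summed buffer-cycle Cy3 intensity per cluster, averaged per switch-domain sequence, with clusters outside 100-1000 RFU excluded.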
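Also: ATP exposure 15 min at 22 °C before imaging.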

Row | Sequence | switch fluorescence ratio
1 | TTGGTCGACG | 0.987
2 | GCAAGAAGGG | 1.02
3 | GCTTCTATGG | 1.04
4 | CCCCATTGTG | 2.89
5 | GCTCTACCAC | 1.05
6 | GAGTAGTTTG | 1
7 | CTGAGAAGGT | 1.03
8 | TCAACCCTGG | 1.06
9 | GACCGTCTAC | 1.17
10 | GACATGCCTT | 1.01
11 | TTGGTGGCTG | 0.968
12 | GCTTGCATAT | 1.02
13 | CCTGTCCGGT | 0.989
14 | AACATATTTG | 0.96
15 | AACTTCCGTC | 1.26
16 | CAACGGGAGA | 1.04
17 | AGTAAATACG | 1.1
18 | TTTCTGACTT | 1
19 | TGGATTTGCT | 0.998
20 | TAAAGAAGCC | 1.03
21 | TCGAAGGAAG | 1.01
22 | GATCGGGTGC | 1.09
23 | CTCGGTGTTT | 0.987

Row | Sequence | switch fluorescence ratio
24 | TCCTGTTTAC | 1.06
25 | TGAAGAGCC | 1.01
26 | GCATGCAAAA | 1.03
27 | CGAGCACACT | 2.27
28 | CAGAATAGGC | 1.11
29 | AAAACTATTG | 1.07
30 | GGGTCCGTAC | 1.05
31 | CGTTCCAATT | 1.08
32 | ATAACTTTGA | 0.982
33 | CCCAACGGGA | 1.02
34 | AGCGGTATA | 0.974
35 | CGGTGGCGCG | 0.985
36 | TGTATGTAA | 1.04
37 | CGAGAGAGCA | 1.03
38 | TTTAACACGG | 1.03
39 | TTGTCGAAGT | 0.988
40 | AGCGCCACGG | 1.03
41 | CATCTTATTC | 1.02
42 | TGGTGCATG | 1.05
43 | GGTAAATACG | 1.09
44 | TTACCCCAGA | 1.18
45 | TCGAGGCTGC | 1.28
46 | CAAGTCAGGT | 1.01

Row | Sequence | switch fluorescence ratio
47 | AATCTCTTGT | 0.99
48 | GCACGGCCGC | 1.2
49 | TCATGGTCTT | 1.02
50 | CTTGATCGAA | 1.01
51 | CTTGGTGAAA | 0.991
52 | AGCTGCGATT | 1.01
53 | ACATGTTTAT | 1.08
54 | GGTATGTGGA | 0.965
55 | ATTTAACGAT | 1.02
56 | AGAGCAAGCT | 1.14
57 | GGTGACTCCG | 1.04
58 | CAAATTGCCA | 0.98
59 | CGGCGGATTT | 1.05
60 | TTGTGTCGCG | 1.06
61 | TTGCGA | 1.01
62 | TGGTCGTCAA | 0.959
63 | CAGGAAAGT | 0.986
64 | AACCTACATA | 1.18
65 | AGATAGTAAC | 0.997
66 | GGTGTTAATC | 0.971
67 | CCGTTTGGTG | 1.06
68 | AGCGGCGGGG | 1.04
69 | TATATAGATT | 1.01

Row | Sequence | switch fluorescence ratio
70 | AGATAGATG | 0.988
71 | CTGATGAAGG | 1.01
72 | CCCAAGTTAT | 1.03
73 | CACATAGTTA | 1.06
74 | GTCGAAGCCT | 1.08
75 | GCTAACTGAT | 0.994
76 | GTTTAGGTA | 1.39
77 | AAATAGGGAG | 0.962
78 | TGCGTTGGTA | 0.965
79 | CGATTATGGA | 1.03
80 | AGGGGAGCAG | 0.983
81 | CCATGTGAGA | 1
82 | TTTCGAAAAT | 0.995
83 | AAGCTGTCTT | 1.02
84 | GCCGTTCGC | 1.15
85 | GAATTTAGAC | 0.993
86 | GCGCAGTTTG | 1.02
87 | TTAGTGCACT | 0.984
88 | TTGATTGCC | 0.989
89 | TTCGTTGTTA | 0.976
90 | GAACCTCTAC | 1.46
91 | ATGGGGTTGA | 1.05
92 | TTACGCCGCA | 1.28

Row | Sequence | switch fluorescence ratio
93 | CGGCGGTCTG | 0.972
94 | ACATCGTAGC | 0.998
95 | TGCAGAGAGG | 1
96 | TTGGATGCTT | 0.99
97 | ACAGAAATAC | 4.48
98 | CCGGTGGCTA | 1.61
99 | CACGTTTCTT | 1
100 | GAGCCTAAGG | 0.994
101 | CATTTTACGG | 0.989
102 | CAAATCGCAC | 1.33
103 | GGGGTGAAAC | 1.01
104 | TTAAATTTAA | 1.03
105 | TCGTTAAGT | 0.97
106 | CGAATCAAGT | 1.03
107 | TCGCTTGATA | 0.983
108 | TTTGGCAATC | 2.77
109 | ATTATCTGC | 1.01
110 | AAGGCGCCGT | 1.04
111 | TTTTCAGCAT | 2.85
112 | GAAGTAGCGC | 1.05
113 | AGGGACGCTC | 1.03
114 | AAAAAATCTG | 1.13
115 | GAGATGCGCT | 1.02

Row | Sequence | switch fluorescence ratio
116 | CACTGAGTTC | 1.03
117 | GTTCTATTAT | 0.989
118 | GTATGGGAGT | 1.01
119 | CTCAAACGAT | 1.06
120 | AAGTGTCCTT | 1
121 | GAGGAAGATA | 1.06
122 | GGGAATGCAC | 1.05
123 | AAAGATACGT | 1.06
124 | CGAGGCTAG | 1.13
125 | TAGGGCAGT | 0.997
126 | TCATGTGCCC | 0.988
127 | ATTTCTGTAG | 1.03
128 | TGTAAACCCA | 1.04
129 | TCGATTCTTG | 1.06
130 | GGCATGTTTT | 1.05
131 | CCGTCCTTGT | 1.02
132 | TTATCCCCAC | 1.02
133 | GGGATTGTTA | 1.01
134 | TTCATTTGG | 0.973
135 | GGCTGGGAGA | 1.02
136 | AAAAAAGAGC | 0.969
137 | TTGGATGTAG | 1.01
138 | TGATGGCCAG | 1.05

Row | Sequence | switch fluorescence ratio
139 | TATCGCCTCA | 1.01
140 | GACGGTCGG | 1.01
141 | AACATAGGCC | 0.988
142 | AGCCGATTGC | 1.03
143 | TGTATCGTTG | 1.01
144 | AAGTCTACCT | 1.13
145 | TTCTCTACCA | 1.03
146 | ACTCAGCCGA | 1.15
147 | TTAGCAATG | 2.05
148 | TTTGCCGTA | 0.978
149 | CTTGCTCAGT | 1.07
150 | ATCCTTGGCA | 1.04
151 | CGGATGGTGG | 1.04
152 | GAATGAGCGC | 1.15
153 | GATGGTGGAA | 0.984
154 | TATTTTTG | 1.05
155 | AGATGCATTG | 0.967
156 | AGTAACCCGG | 1.06
157 | AAGCTGTGGG | 0.973
158 | TCTCGTTTTC | 0.965
